Results: the supplement of paper PMC12217912
This is one part of the list. The full chains were built here from the parent and the listed change. Values near 0.05 are background.

B1: TEV protease; numbered along this chain (parent)
chain: MGESLFKGPRDYNPISSSICHLTNESDGHTTSLYGIGFGPFIITNKHLFRRNNGTLVVQSLHGVFKVKDTTTLQQHLVDGRDMIIIRMPKDFPPFPQKLKFREPQREERICLVTTNFQTKSMSSMVSDTSCTFPSGDGIFWKHWIQTKDGQCGSPLVSTRDGFIVGIHSASNFTNTNNYFTSVPKNFMELLTNQEAQQWVSGWRLNADSVLWGGHKVFMVKPEEPFQPVKEATQL

Variants of: B1
Test: raw area under fraction-flipped curve 0-4 h after induction (AUC4h, not background-subtracted), DNA-recorder readout of cleavage of the substrate (dimensionless); higher = more cleavage of the substrate by the protease variant
Conditions: temperature: 34 °C; time window: 0-4 h after rhamnose induction
Description: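 In vivo DNA recorder in E. coli TOP10(DE3) ΔrhaA at 34 °C. Each TEVp single-site mutant (parent TEVp 0) is paired with a single-site variant of the 7-mer TEVs (canonical ENLYFQ|S). The substrate sits between flexible linkers in a Bxb1-sfGFP-TEVs-SsrA fusion, so cleavage stabilises Bxb1 and speeds flipping of a recombination array, read by NGS. The value is the raw area under the fraction-flipped curve over 0-4 h after rhamnose induction (AUC4h), with ≥20 reads per time point. It is not background-subtracted; inactive controls average about 0.047.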
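Also: Bxb1 expression induced with 0.2% (w/v) L-rhamnose at OD600 near 0.5, cultures sampled hourly, flipped fraction per protease–substrate barcode pair counted by paired-end Illumina sequencing.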

Row | Variant | area with substrate ENLYAQS | area with substrate ENLYCQS | area with substrate ENLYEQS | area with substrate ENLYGQS | area with substrate ENLYHQS | area with substrate ENLYKQS | area with substrate ENLYMQS | area with substrate ENLYNQS | area with substrate ENLYQQS | area with substrate ENLYRQS | area with substrate ENLYSQS | area with substrate ENLYTQS | area with substrate ENLYVQS | area with substrate ENLYWQS | area with substrate ENLYYQS | area with substrate ENLYIQS | area with substrate ENLYLQS | area with substrate ENLYPQS | area with substrate ENLYDQS
1 | S32D | 0.0693 | 0.0375 | 0.0609 | 0.0657 | 0.0636 | 0.0605 | 0.0689 | 0.0816 | 0.0649 | 0.0549 | 0.0757 | 0.0635 | 0.0873 | 0.0776 | 0.0705 |  |  |  | 
2 | L112W | 0.076 |  | 0.0613 | 0.0537 | 0.0553 |  | 0.0677 | 0.0678 | 0.0608 | 0.0612 | 0.0721 | 0.069 | 0.0798 | 0.0468 |  | 0.0647 | 0.0503 | 0.0643 | 
3 | P40F | 0.0856 |  | 0.0659 | 0.066 | 0.062 | 0.0614 | 0.082 | 0.0632 | 0.0634 | 0.0539 | 0.0705 | 0.0834 | 0.103 | 0.078 |  | 0.102 |  | 0.0647 | 
4 | K46S | 0.0716 | 0.0866 | 0.0652 |  | 0.0673 | 0.0654 | 0.0943 | 0.0652 | 0.0583 | 0.0642 | 0.0714 | 0.0689 | 0.105 | 0.0799 | 0.057 | 0.11 |  | 0.0628 | 0.0539
5 | E224V | 0.0843 | 0.0831 | 0.0881 | 0.0545 | 0.068 | 0.061 | 0.0989 | 0.0752 | 0.0591 | 0.067 | 0.0894 | 0.0597 | 0.0886 | 0.0917 | 0.101 | 0.092 | 0.0953 | 0.0611 | 0.0744
6 | N13S | 0.0729 |  | 0.0694 | 0.0636 | 0.0673 | 0.0668 | 0.0717 | 0.0694 | 0.0555 | 0.0616 | 0.0814 | 0.0839 | 0.0986 | 0.0749 | 0.0577 | 0.121 | 0.0984 | 0.0685 | 0.0676
7 | L56T | 0.0652 | 0.0475 |  | 0.05 | 0.0573 | 0.0542 | 0.064 | 0.0592 |  | 0.0713 |  | 0.0574 |  | 0.0564 | 0.0462 | 0.0747 |  | 0.0573 | 0.056
8 | G136R | 0.0787 | 0.102 | 0.0569 |  | 0.0714 | 0.0131 | 0.08 | 0.0683 | 0.0457 | 0.0586 | 0.0839 | 0.0971 | 0.108 | 0.0738 | 0.0572 | 0.0767 |  | 0.0754 | 0.0549
9 | T176C | 0.0993 |  | 0.0782 | 0.0546 | 0.055 | 0.0513 |  | 0.0676 | 0.0694 | 0.0671 | 0.0628 |  |  |  | 0.0746 |  | 0.0599 |  | 0.0604
10 | N13V | 0.0659 | 0.0926 | 0.0619 | 0.0647 | 0.0671 | 0.0547 | 0.0674 | 0.0647 | 0.0631 | 0.0618 | 0.0905 | 0.0624 | 0.16 | 0.0801 | 0.0676 | 0.136 | 0.0728 | 0.0756 | 0.0502
11 | K120P | 0.068 |  |  |  |  |  | 0.0686 | 0.0718 |  | 0.0592 |  |  | 0.113 | 0.0882 |  | 0.112 |  | 0.0699 | 0.02
12 | L56C | 0.086 |  | 0.0568 |  |  | 0.0542 |  | 0.0332 |  |  |  | 0.0662 | 0.02 | 0.0747 | 0.0319 | 0.0941 |  | 0.062 | 
13 | T72A | 0.0861 | 0.0675 |  |  | 0.0592 | 0.0558 | 0.0668 |  |  |  | 0.0727 | 0.0976 | 0.0837 | 0.0764 |  | 0.108 |  | 0.0565 | 0.0659
14 | D208V | 0.067 |  | 0.0654 | 0.0594 | 0.0617 | 0.0751 |  | 0.0671 | 0.0492 | 0.0685 | 0.0164 |  | 0.0792 | 0.0618 |  | 0.0737 |  | 0.0546 | 0.0459
15 | S4D | 0.0936 | 0.084 | 0.0792 | 0.0783 | 0.0694 | 0.0609 | 0.0945 | 0.0533 | 0.0615 |  | 0.0813 |  | 0.148 | 0.0998 |  | 0.164 |  | 0.0721 | 0.0729
16 | C152D | 0.0655 | 0.0574 | 0.0584 | 0.0666 |  |  | 0.0616 | 0.0579 | 0.0729 |  | 0.0907 | 0.0464 | 0.052 |  |  |  | 0.054 | 0.054 | 
17 | E103G | 0.0795 |  | 0.0728 | 0.0677 | 0.0589 | 0.0565 | 0.0772 | 0.0696 | 0.0544 | 0.0384 | 0.0661 | 0.075 | 0.0716 | 0.0689 | 0.0665 | 0.118 | 0.0798 | 0.0683 | 0.064
18 | G8F | 0.0928 |  | 0.0658 | 0.0657 | 0.0469 | 0.0502 | 0.0993 | 0.075 | 0.0708 | 0.067 | 0.0551 |  | 0.0656 |  | 0.0608 |  |  | 0.0765 | 0.0727
19 | V64C | 0.0579 | 0.099 | 0.0701 |  | 0.0888 | 0.0719 | 0.072 | 0.0725 | 0.0707 | 0.0664 | 0.0561 | 0.0812 | 0.132 | 0.0738 | 0.067 |  | 0.0848 | 0.0917 | 0.0731
20 | R160D | 0.0746 |  | 0.0728 | 0.0729 | 0.0789 | 0.0802 | 0.0895 | 0.069 |  | 0.06 | 0.0542 |  | 0.114 | 0.0807 |  | 0.133 |  | 0.0691 | 0.0508
21 | L48M | 0.0522 |  | 0.0645 |  | 0.0589 | 0.0648 | 0.0807 | 0.0489 | 0.0567 |  | 0.0777 |  | 0.0626 | 0.0785 |  | 0.0722 |  | 0.0081 | 0.066
22 | N24H | 0.0828 | 0.0697 |  | 0.0652 | 0.0335 | 0.0463 | 0.0819 |  | 0.0458 | 0.0612 | 0.0692 |  | 0.0659 | 0.0606 |  | 0.0921 |  | 0.0422 | 0.0605
23 | C152E | 0.0579 | 0.0691 | 0.0687 | 0.0585 | 0.0554 | 0.0528 | 0.0669 | 0.0695 | 0.0588 | 0.0625 | 0.067 | 0.065 | 0.0598 | 0.0908 | 0.0553 | 0.0521 | 0.0724 | 0.0638 | 0.0698
24 | S16T | 0.075 | 0.0824 | 0.0671 | 0.0616 | 0.0685 | 0.0538 | 0.0907 | 0.0656 | 0.0614 |  | 0.0544 | 0.0927 | 0.0913 | 0.0703 | 0.0608 | 0.134 |  | 0.0615 | 0.0645
